Reference: the RNAGym collection of RNA variant scans (doi:10.7554/elife.90254)
The source gives no read counts; variants with many changes may rest on few reads.

B1: LINE1-mini (parent)
chain: GGCAGAGCUCAACACAGCGUGGCAAAGUGGCUGUGGCUAGACUGCC

Variants of: B1
Assay: self-cleavage, relative activity (ratio to wild type); higher = more cleavage; in vitro, sequencing; the parent is a self-cleaving ribozyme

Variant | self-cleavage
GGCAGCGCUCAACACAACGUGGCAAAGUGACUGUGGAUAGACUGCC [A6C G17A G30A C37A] | 0.03
GGCAGCGCUCAACAUAGCGUGGCGAAGUGGCUGUGGCUAGACUGCC [A6C C15U A24G] | 0.21
GGCAGCGCUGAACACAGCGUGGCAACGUGGCUGUUGCUAGACUGCC [A6C C10G A26C G35U] | 0.02
GGCAGCGAUCAUCACAGCGUGGCAAAGUGGCUGUGGUAAGACUGCC [A6C C8A A12U C37U U38A] | 0.04
GGCAGCGCUCAACGCGGCGUGGCAAAGUGGCUGUGGCUAGACUGCC [A6C A14G A16G] | 0.05
GGCAGCGCUCAACACAGCGUGGCAAAGUGGUUGUGGCUAGACUGCA [A6C C31U C46A] | 0.27
GGCAGCCCUCAUAACACCGUGGGAAAGUGGCUGUGGCUAGACUGCC [A6C G7C A12U C13A G17C C23G] | 0.06
GGCAGCGCUCAAAACAGAGUGGCAAAGCGGCUGUGGCCAGACUGCC [A6C C13A C18A U28C U38C] | 0.02
GGCAGCGCUCAACACUGCGUGGCAAAGUGGCUGUGGCUAGACUGCU [A6C A16U C46U] | 0.07
GGCAGCGCUCAACAUAUCGUGGCAAAGUGGCUGUGGCUAGACUGCC [A6C C15U G17U] | 0.25
GGCAGCUCUCAACACAGCGUGGCAAAGAGGCUGUGGCUUGACUGCC [A6C G7U U28A A39U] | 0.2
GGCAGCGCUCAACACAGUGUGGCAAAGUGGUUGGGGCUAGACUGCC [A6C C18U C31U U34G] | 0.02
GGCAGCGCUCAACCCAGCGUGGCAAAGUGGCUGUGGCUAGACUGGC [A6C A14C C45G] | 0.05
GGCAGCGCUCAACACAGCGUGACAAAGUGGCUGUGGAUAUACUGCC [A6C G22A C37A G40U] | 0.06
GGCAGCUCUCAACACAGCGGGGCAAAGUGGCUGUGGCUAGACUGCA [A6C G7U U20G C46A] | 0.01
GGCAGCGCUUAAGACAGCGUGGCAAAGUGGCUGUGGCUAGAAUGCC [A6C C10U C13G C42A] | 0.05
GGCAGCGCUCAACCCAGCGUGGCAAAGUGCCUGUGUCUAGACUGCC [A6C A14C G30C G36U] | 0.05
GGCAGCGCUUAACACAGCGUGGCAAAGUGGCUCUGGCUAGACUGCC [A6C C10U G33C] | 0.01
GGCAGCGCUCAAAUCUGCGUAGCAAAGUGGCUGUGGCUAGACUGCC [A6C C13A A14U A16U G21A] | 0.04

Variant | self-cleavage
GGCAGCGCUCAACAAAGCGUGGCAAAGUGGCUGUGGCUUGACUUCC [A6C C15A A39U G44U] | 0.05
GGCAGCGCUCAACACAGCGUGGCAAAGUGGCUGUCGUUAGACUGAC [A6C G35C C37U C45A] | 0.02
GGCAGCGCUCAAGACAGCGUGGCAAAGUGGCUGUGUCUAGACUGCC [A6C C13G G36U] | 0.05
GGCAGCGCUCAACGCAGCGUAGCAAAGUGGCUGUGGCUAGACUUCC [A6C A14G G21A G44U] | 0.1
GGCAGCGCUUAACACAGCGUGGCAAGGUGGCUGUGGCUAGACUGGC [A6C C10U A26G C45G] | 0.02
GGCAGCGCUCAACACAGCGUGGCAAACCGGCUGUGGCUAGACUGCC [A6C G27C U28C] | 0.92
GGCAGCGAUCAACACAGAGUGGCAAAGUGGCUGUGGCUAGACUGCC [A6C C8A C18A] | 0.18
GGCAGCGCUCAACACAGUGUGGCAAAGUGGCUGUGGGUAGACUGCC [A6C C18U C37G] | 0.01
GGCAGCGCUCAACACAGCGUGGCAUAGUGGCUGUGGCUCGACUGCA [A6C A25U A39C C46A] | 0.58
GGCAGCGCUCAGCACAGCGUAGCAAAGUGGCUGUGGCUAGACUGCC [A6C A12G G21A] | 0.05
GGCAGCGCUCAACACAGCGUGGGAAAGUGGCUGUGGCUGGACUGCC [A6C C23G A39G] | 0.03
GGCAGCGCUCAACACAGCGUGGCAAAGUGGCUGUGGCUAGAGUGUC [A6C C42G C45U] | 0.04
GGCAGCCCUCAACCCAGCGUGGCACAGGGGCUGUGGAUAGACUGCC [A6C G7C A14C A25C U28G C37A] | 0.01
GGCAGCGCUCAACACAGCGUGGCAAAAUGCCUGUGGCUAGACUGCC [A6C G27A G30C] | 0.19
GGCAGCGCUCAACACGGCGUGUCAAACUGGCUGUGGCUAGACUGAC [A6C A16G G22U G27C C45A] | 0.04
GGCAGCGCUCAACACAGCGUGGCAAAGUCGCUGUGGCUAGUUUGCC [A6C G29C A41U C42U] | 0.09
GGCAGCGCUAAAGAAAGCGUGGCAAAGUGGCUGUGGCUAGACUGCC [A6C C10A C13G C15A] | 0.02
GGCAGCGCUCAACACAGCGUGGCAAAGUGGCUGUGACUAGACUGCU [A6C G36A C46U] | 0.24
GGCAGCACUUAACACACCGUGGCAAAGUGGCUGUCGCUAGACUGCC [A6C G7A C10U G17C G35C] | 0.02

Variant | self-cleavage
GGCAGCGCUCAACACAGCGUGCCAAAGUGACUGUGGCUAGACUGCC [A6C G22C G30A] | 0.11
GGCAGCGCUCAACACAUCGUGGCAUAGUGUCUGUGGCUAGACUGCC [A6C G17U A25U G30U] | 0.19
GGCAGCGCUCAACACUGCGUGGCAAAAUGGCUGUGGCUAGACUGCC [A6C A16U G27A] | 0.37
GGCAGCGCUCAACACAGGGUGGCAAAGUGGCUGUGGCUAGUCUCUC [A6C C18G A41U G44C C45U] | 0.01
GGCAGCGCUCAACACAGCGUGGCUAAGUGGCUGUGGCUAUACUGCC [A6C A24U G40U] | 0.34
GGCAGCGCUCAACACAGAUUGGCAAAGUGACUGUGGCUAGACUGGC [A6C C18A G19U G30A C45G] | 0.07
GGCAGCGCUCAAGACAGCGUGGCAAAGUGGCAGUGGAUAGACUGCC [A6C C13G U32A C37A] | 0.06
GGCAGCGCUCAACACAGCGUGGCAAAGUGGCUGUGCCUUGACUGCC [A6C G36C A39U] | 0.16
GGCAGCCCUGAACACAGCGUGGUAAAGUGGCUGUGGCUAGACUGCC [A6C G7C C10G C23U] | 0
GGCAGCGCUCAACACAGCGUGGCAAAAUGGCGGUUGCUAGACUGCC [A6C G27A U32G G35U] | 0.05
GGCAGCGCUCAACACAGCGUGGCAAAGUGGAUGUGGCUCGUCUGCC [A6C C31A A39C A41U] | 0.04
GGCAGCGCUCAACACAGCGUGUCAAAGUGGCUGUGGCUCGACCGCC [A6C G22U A39C U43C] | 0.1
GGCAGCGCUCAACACAGCGUGGCAAAGUGGAUGAGGCUACACUGCC [A6C C31A U34A G40C] | 0.02
GGCAGCUCUCAACACAGCGUGGCAAAGUGGCGGUGGCUAGACUGCC [A6C G7U U32G] | 0.04
GGCAGCGCUCAACACAGGGAGGCAAAGUGGCUGUGGCUAGACUGCC [A6C C18G U20A] | 0.17
GGCAGCGCUCAACACAGCUUGGCAAUGUGACUGUGACUAGACUGCC [A6C G19U A26U G30A G36A] | 0.02
GGCAGCGCUCAAAUCAGCGUGGCAAAGUGGCUGUGUCGAGACUGCC [A6C C13A A14U G36U U38G] | 0.09
GGCAGCGCUCAUCACAGCGUGGCAGAGUGACUGUGGCUAGACUGCC [A6C A12U A25G G30A] | 0.09
